56 sequences from the supplement of paper PMC11417369 can be followed below.

The other results are listed elsewhere or left out.

The experiment deals with PF3D7_0420300 AP2 domain 1 (GST-tagged). As to the kind of experiment: gcPBM binding intensity (ln(normalized median fluorescence intensity)); higher = stronger DNA binding. In short, it runs like this:
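Each value is the highest Masliner-normalised natural-log median intensity across replicate spots of either orientation of a probe. The probes were primer-extended double-stranded 36-bp intergenic genomic sequences on an Agilent 4 × 180k array, alongside negative controls, exposed for 1 h to GST-tagged P. falciparum DNA-binding domains expressed in E. coli. Bound protein was picked up with Alexa488 anti-GST antibody and scanned at 488 nm.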
With “ATCATATGTATGCATACACACAAAAAATTATATATA [CACACA_site398]”, the “gcPBM binding intensity (ln)” value was found to be 9.43.

Consider “TATAATGATATAACAACACACATGTATGTATTATTA [CACACA_site230]”, for which the “gcPBM binding intensity (ln)” value is 9.35.

In the case of “TTATTTATGATATATACACACTAACATTATTTATCC [CACACA_site6720]”, the “gcPBM binding intensity (ln)” value came out at 9.46.

Turning to “TCTTATATATGCTTAAATATATTATATTTATTTGAA [CACACA_negctrl_site1757]”, the “gcPBM binding intensity (ln)” value was 8.99.

Turning to “AACCATAAATAATTATGTACTAAAAAAAATATATAT [XGTACX_site3415]”, the “gcPBM binding intensity (ln)” value came to 9.31.

On to “TGGAGGATAGTTCACAGTACCCAGAAACTCTACGGA [XGTACX_site2560]”, for which the “gcPBM binding intensity (ln)” value was 8.97.

With “ATAATATATTTATGTTGTACAAGGAAAATTTTGAAA [XGTACX_site3472]”, the “gcPBM binding intensity (ln)” value amounted to 9.26.

Consider “GAAATGGAAAAATATACATGCGCATATAAATTAATA [TGCATGCA_site834]”, for which the “gcPBM binding intensity (ln)” value was determined as 9.19.

Regarding “ATATTTTTTACTATTACACACAAGGGATTATTATTT [CACACA_site3915]”, the “gcPBM binding intensity (ln)” value was 9.64.

Take “TCAAATAATTTGTTGACACACACACCCACATACATA [CACACA_site8717]”: the “gcPBM binding intensity (ln)” value was found to be 9.85.

For “ACCTTATAAAAAAAAAGTACATATATAAATAATAAA [XGTACX_site4338]”, the “gcPBM binding intensity (ln)” value turned out to be 9.21.

On to “AAACAATAAAAGATTACACACATATATAGCATATAT [CACACA_site1698]”, for which the “gcPBM binding intensity (ln)” value worked out at 9.86.

Regarding “TATACATAATATATATGTACATATATTCTTTATTTT [XGTACX_site4565]”, the “gcPBM binding intensity (ln)” value worked out at 9.23.

Regarding “TTTTCGATATGCTTTTTTTTTCTACTGTCTTTTTAA [TGCATGCA_negctrl_site54]”, the “gcPBM binding intensity (ln)” value is 9.38.

For “ATATCAAATTCTGAAACACACAAAATTACACCTCTA [CACACA_site169]”, the “gcPBM binding intensity (ln)” value came to 9.45.

Consider “CAAAAATATTATTATAGTACATAAATAATATATTTT [XGTACX_site6902]”, for which the “gcPBM binding intensity (ln)” value amounted to 9.07.

As for “TAAAAATAGGAGTGTGTGCACATAAATTATATACTA [GTGCAC_site9405]”, the “gcPBM binding intensity (ln)” value amounted to 9.66.

On to “CACATACATAAATACACACACAAAATAATAAAATAA [CACACA_site5304]”, for which the “gcPBM binding intensity (ln)” value was 10.

For the sequence “TTACTTAATAGACACACACACAAAAAAAAAAAAAAA [CACACA_site6572]”, the “gcPBM binding intensity (ln)” value came out at 9.75.

For “TTTTCATTTTTCTTTACACACATATATATATATATA [CACACA_site2236]”, the “gcPBM binding intensity (ln)” value turned out to be 9.72.

As for “GAAAGACAAATTGTGACACACACAAAAAAAAAAAAA [CACACA_site9241]”, the “gcPBM binding intensity (ln)” value came out at 9.49.

Turning to “AAAAAAAAAAAAAAAAAAAAACACCCAAAAAAATAT [XGTACX_negctrl_site210]”, the “gcPBM binding intensity (ln)” value is 9.62.

“TATATATATATTTTTTGTACATATTATATAATATAC [XGTACX_site5187]”: the “gcPBM binding intensity (ln)” value came to 9.35.

On to “GTAAACAATTATGAACGTACATAAAATAAATGAACA [XGTACX_site7159]”, for which the “gcPBM binding intensity (ln)” value was found to be 9.42.

“TGTCTTTTTAAGTTTTGTACATAAATATATTTCAAA [XGTACX_site427]”: the “gcPBM binding intensity (ln)” value worked out at 9.01.

As for “AGTATACACAGACACACACACACATATATATATATA [CACACA_site8510]”, the “gcPBM binding intensity (ln)” value came to 10.2.

Turning to “TTTTTATGGACTATGGTGCATTATATATAAATGAAA [GTGCAC_site9557]”, the “gcPBM binding intensity (ln)” value was found to be 8.99.

Turning to “TAATATTATATAAATTGTACTATTTTTTCCTTATTC [XGTACX_site5314]”, the “gcPBM binding intensity (ln)” value was determined as 9.16.

As to “TATTTATGCACGCGTGCACACACATATGAAAAAAGG [CACACA_site9090]”, the “gcPBM binding intensity (ln)” value was 9.7.

As to “AATTGCTAATGGTACGAACACACATATAAAGATGCA [CACACA_site8634]”, the “gcPBM binding intensity (ln)” value was determined as 9.43.

Turning to “CTTTCATATGTTTTAACACACACGCATATATTATAG [CACACA_site7033]”, the “gcPBM binding intensity (ln)” value is 9.82.

Take “ATATAAGTTATTTTATACAAAAAAAAAAAAAAAAAT [CACACA_negctrl_site1190]”: the “gcPBM binding intensity (ln)” value is 9.18.

As to “AAGAATGTTAACGTTGCACACAAAAAAAAAGTATAC [CACACA_site8763]”, the “gcPBM binding intensity (ln)” value came out at 9.55.

Turning to “AAAAAAAAAAAAAATACACACACATATATATATATA [CACACA_site8698]”, the “gcPBM binding intensity (ln)” value came to 9.55.

For the sequence “ATATATATAATAAATACACACATTTATATAGATAAA [CACACA_site3254]”, the “gcPBM binding intensity (ln)” value was determined as 9.56.

As for “ATTCAATATTTATACACACACACTTTTAATAATTAA [CACACA_site7725]”, the “gcPBM binding intensity (ln)” value stood at 9.83.

With “TCATTCAGTTTTATCACACACAATCAAACATATATA [CACACA_site2742]”, the “gcPBM binding intensity (ln)” value was 9.5.

In the case of “AAACATTTATCAATGAATCTTTTAATAAGTGTAAAG [XGTACX_negctrl_site80]”, the “gcPBM binding intensity (ln)” value was 8.88.

For “TATTTTTTTAGATATACATGCAAAAACAGAAGAAAT [TGCATGCA_site283]”, the “gcPBM binding intensity (ln)” value is 9.34.

On to “AATATAAGGATATATACACACATAAATACATACATA [CACACA_site7859]”, for which the “gcPBM binding intensity (ln)” value was determined as 9.89.

On to “TCAACATTCATTGGAAGTACTCACTCCCATATAATA [XGTACX_site5211]”, for which the “gcPBM binding intensity (ln)” value was found to be 8.97.

Take “TGAACTTTAAACCCTGAACACACACTAATACACCCA [CACACA_site7970]”: the “gcPBM binding intensity (ln)” value was determined as 9.77.

In the case of “AATATGTCATATATGTGTACATATGCACAGATATTA [XGTACX_site951]”, the “gcPBM binding intensity (ln)” value was determined as 9.15.

Take “ATAAAAAGAAATCCAATACACACCTTCAAAATGGGT [CACACA_site1622]”: the “gcPBM binding intensity (ln)” value worked out at 9.69.

Consider “TAATAAATAAATGACACACACACACCCAAAAAAAAA [CACACA_site2623]”, for which the “gcPBM binding intensity (ln)” value was found to be 10.2.

As for “TTATTAACCTAAATTAGTACATATAATATAAAAAAT [XGTACX_site8661]”, the “gcPBM binding intensity (ln)” value turned out to be 9.18.

On to “AGCTATGTATTCTACACACACATACACCCATATATA [CACACA_site5827]”, for which the “gcPBM binding intensity (ln)” value stood at 10.1.

In the case of “AAAATATTATCTAATTGTACTTATATAACTATATAT [XGTACX_site5699]”, the “gcPBM binding intensity (ln)” value amounted to 9.21.

Regarding “TTGAAATGCATGAACACACACAGCTATAAATGCATA [CACACA_site968]”, the “gcPBM binding intensity (ln)” value turned out to be 9.49.

Regarding “AAATTTATGAACCTAGTGCAGAAATTAAAAAGATGA [GTGCAC_site9396]”, the “gcPBM binding intensity (ln)” value is 9.38.

With “ATACTAAGGAGAAAAGAAAAGTGAATTTATTCTATA [CACACA_negctrl_site1792]”, the “gcPBM binding intensity (ln)” value was determined as 9.03.

Turning to “TTAAATACTAAAAAGTGTACACATACATAAAAAATT [XGTACX_site6261]”, the “gcPBM binding intensity (ln)” value was 9.49.

“ATTATGTTAATAATATGTACATATATCTACATATAT [XGTACX_site7978]”: the “gcPBM binding intensity (ln)” value was determined as 9.16.

For “ATTATTTTGTTTATTACATGCAGGTGTATATTACAG [TGCATGCA_site723]”, the “gcPBM binding intensity (ln)” value was found to be 9.36.

Take “GAGTATATTTATATTGCACACAATTTTTTTATTTTT [CACACA_site2644]”: the “gcPBM binding intensity (ln)” value was 9.54.

Regarding “CATAAATGTCTCACATGTACATATGCATTTTTAAAA [XGTACX_site3194]”, the “gcPBM binding intensity (ln)” value is 9.06.
